# Experimental data as given in PMC12136788.
# This is one part of the list.
# T1: UNK ZnF1-6 (called full-length) (human, UniProt Q9C0B0 30-357)
# T1 sequence: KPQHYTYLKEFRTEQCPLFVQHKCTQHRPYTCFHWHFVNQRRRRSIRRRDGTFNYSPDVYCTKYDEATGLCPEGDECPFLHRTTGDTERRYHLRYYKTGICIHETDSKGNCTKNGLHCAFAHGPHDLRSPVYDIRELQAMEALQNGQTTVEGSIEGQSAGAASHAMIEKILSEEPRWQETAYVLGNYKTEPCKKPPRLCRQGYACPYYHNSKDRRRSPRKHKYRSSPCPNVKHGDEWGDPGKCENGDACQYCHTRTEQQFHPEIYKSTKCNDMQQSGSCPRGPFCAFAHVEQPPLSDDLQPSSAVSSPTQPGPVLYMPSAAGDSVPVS
# B1: chr16:3727180:3727281:-|3pUTR|ENSG00000005339|msi1|FALSE|bound_elsewhere (ssRNA)
# RNA: GGGAGUUCUACAGUCCGACGAUCAAUGCAAGCUUAUAAUGUAUCCCGAUAACUUUGUGAUGUUUCGGGAAGAUUUUUUUCUAUAGUGAACUCUGUGGGCGUCUCCCAGUAUUACCCUGGAUGAUAGGAAUUGACUCCGGCGUGCAACAGAGGAUUGAGCAUCA
# B2: ENSG00000124766:be:win_2551|3pUTR|ENSG00000124766|bound_else_gene|NA|bound_elsewhere_windowed (ssRNA)
# RNA: GGGAGUUCUACAGUCCGACGAUCUCUUUUAAAGAUUUCUGUAUAAGACUGUUGAGCAGUUUUUAAAAUAGUGUAGGAUAAUAUAAAAAGCAGAUAGAUGGCGCUAUGUUUGAUUCCUACAACGAAAUUAUCACCAGCUUUUUUCAACAGAGGAUUGAGCAUCA
# B3: ENSG00000198589:be:win_8551|CDS_3pUTR|ENSG00000198589|bound_else_gene|NA|bound_elsewhere_windowed (ssRNA)
# RNA: GGGAGUUCUACAGUCCGACGAUCCGCUACUGAUGGUGACAGCUGUACAUCAACUCUGCCCCUAGGAUGAGCAGAAGUACCUGGAGCAUCAUUCUCUUCUACCACAUCUGAAUGUAACUUAAAUUUGCUCAAAGAAGCAAAAUACAACAGAGGAUUGAGCAUCA
# B4: chrX:108174439:108174621:-|CDS|ENSG00000197565|control|control|control (ssRNA)
# RNA: GGGAGUUCUACAGUCCGACGAUCCGACCUGGACCACCAGGCCUACCUGGAGCUCCUGGCCUCCCAGGCAUUAUCAAAGGAGUUAGUGGAAAGCCAGGGCCCCCUGGCUUCAUGGGAAUCCGGGGCUUACCUGGCCUGAAGGGGCAACAGAGGAUUGAGCAUCA
# B5: chr6:145799413:145799514:-|3pUTR|ENSG00000118496|msi1|total|mutant (ssRNA)
# RNA: GGGAGUUCUACAGUCCGACGAUCUUAUCUCACAUACUUACAACUCAACACACAGAGUGACCAUGUGCAGCUUUCUUUUUUGUCCGAUGCCACAUCCGAAGACUCAUCGCAGUGUGUUAUAUGACAGGACAAAGCAAAAACAAACAACAGAGGAUUGAGCAUCA
# B6: chr8:23842440:23842541:-|3pUTR|ENSG00000159167|msi1|FALSE|unique (ssRNA)
# RNA: GGGAGUUCUACAGUCCGACGAUCCCAAUGCGACAAGUAGUUCAUGAGUAUUCCUAGCAAAUUUCUCUCUUUCUUCAGUUCAGUAGAUUUCCUUUUUUCUUUUCUUUUUUUUUUUUUUUUUUUUUGGCUGUGACCUCUUCAAACCAACAGAGGAUUGAGCAUCA
# B7: chr17:74579364:74580001:-|three_prime_utr|ENSG00000204345|control|control|control (ssRNA)
# RNA: GGGAGUUCUACAGUCCGACGAUCGGGCGAAAGGCCCUCCCACAGAAGAAAAAACAUUUUCUUUUCUCUUCUUUUUUUCUUUCUAGAGAUAGAGUCUUGCUCUGUCACCCAGGCUGGAAUGCAAUGGUGUAAUCUCUGCUCACUCAACAGAGGAUUGAGCAUCA
# B8: chr5:148417036:148417137:+|CDS|ENSG00000145868|unk|FALSE|unique (ssRNA)
# RNA: GGGAGUUCUACAGUCCGACGAUCGGUUGUGCUCGAGUUGGUCUGAGUGCAGGCACAGGAAUUGGUGUUUCAUCAGCUCUUGUUAGCAACCAGAACUCCAACAAUGACGAUAAUAAUGCCCAGAAUAACAAUGCCAACAUCCACCAACAGAGGAUUGAGCAUCA
# B9: chr2:32377587:32377702:+|CDS|ENSG00000115760|unk|FALSE|unique (ssRNA)
# RNA: GGGAGUUCUACAGUCCGACGAUCGGUGAAAUGUCAGUAUAUCUCUGCUGUGGAUAAAGUUAUAUUUGUGGAUGAUUAUGCAGUAGGGUGUAGGAAGGACCUUAAUGGAAUCUUGUUGUUAGACACUGCUCUGCAAACUCCAGUCAACAGAGGAUUGAGCAUCA
# B10: chr14:75134463:75134564:-|3pUTR|ENSG00000170348|msi1|FALSE|unique (ssRNA)
# RNA: GGGAGUUCUACAGUCCGACGAUCCUGUUUGGACUAUGUUUUCUUUUCUUCUCCCACUUGCUCAGCAGCUUGGGCUUCCAUUCUAGUUCUUUUACCAAGAUUUUUGUGUGACCAUGUUGACUUCAUUUGGAUUGCCCUCUUUCACAACAGAGGAUUGAGCAUCA
# B11: chr1:161222291:161222522:-|three_prime_utr|ENSG00000158874|control|control|control (ssRNA)
# RNA: GGGAGUUCUACAGUCCGACGAUCACACAGCCUGCCACCCAGUGAAGUGUCCAGACCAUUGUCUUCCAACCCCAGCUGGCCUCUAGAACACCCACUGGCCAGUCCUAGAGCUCCUGUCCCUACCCACUCUUUGCUACAAUAAAUCAACAGAGGAUUGAGCAUCA
# B12: chr3:141442868:141442977:+|CDS|ENSG00000177311|unk|total|mutant (ssRNA)
# RNA: GGGAGUUCUACAGUCCGACGAUCCCAGCCAUCACUAAUGGGCCAAGGAUCACAAAUGCAUUUUCCAUCAUCGAAACAGAAAACCGUAAUAACAUGUUUUCCCCGCUGGACUUGAGGGCAAGUUUCAAAAAGGUCUCCGACUCCCAACAGAGGAUUGAGCAUCA
# B13: chr1:113764432:113764533:-|3pUTR|ENSG00000081019|msi1|FALSE|bound_elsewhere (ssRNA)
# RNA: GGGAGUUCUACAGUCCGACGAUCAAAAUAUUCUGAAAUAGGUUAAAUCUUAUAUAAAUAUUACUUUGUGCAAUAUUGUUGUGUAGUUAAAUGCAUAUUAGCAAAGUAUAGAGGUCACUGUGUAAACCGAUAGAAAAGUAACCACAACAGAGGAUUGAGCAUCA
# B14: chr22:36488912:36489013:-|3pUTR|ENSG00000100350|msi1|total|mutant (ssRNA)
# RNA: GGGAGUUCUACAGUCCGACGAUCCCCGUCUCUUCUUCAUUGCCCUUCCUCACCAGCAAUCUGCACUUUCCCAUCAGGCGUCUCCGUCUCAUUUGUAAGUGCAUAAGAUAAUCACAGUGAUUUUUCAAAGCCCAGGAUCAUAAGCAACAGAGGAUUGAGCAUCA
# B15: chr2:1633339:1633490:-|3pUTR|ENSG00000130508|msi1|FALSE|unique (ssRNA)
# RNA: GGGAGUUCUACAGUCCGACGAUCUUCAUAAGCCACAUUUAGAAACAGGUUUGCUUUCAGCUGUCACUUGCACACAUACUGCCUAGUUGUGAACCAAAUGUGAAAAAACCUCCUUCAUCCCAUUGUGUAUCUGAUACCUGCCGACAACAGAGGAUUGAGCAUCA
# B16: chr10:62807900:62808002:+|3pUTR|ENSG00000181915|unk|FALSE|unique (ssRNA)
# RNA: GGGAGUUCUACAGUCCGACGAUCCAAAAAGUUGAUUAGCUUACCAAGAUUAUUAAUAGCAAUGUAUGUGUUAUAAUACAACUUAGUACAUUAAAGCUACGAAAACUCAUCCUGGCUGUAGGAUAGUAAUAAAGGAAGAAUUAUCAACAGAGGAUUGAGCAUCA
# B17: chr1:214663888:214664008:+|3pUTR|ENSG00000117724|msi1|FALSE|bound_elsewhere (ssRNA)
# RNA: GGGAGUUCUACAGUCCGACGAUCAGGAGAAAACAAUUCCUUAGAAGUCUUAAAUAUAUUGUACUCUUUAGAUCUCCCAUGUGUAGGUAUUGAAAAAGUUUGGAAGCACUGAUCACCUGUUAGCAUUGCCAUUCCUCUACUGCACAACAGAGGAUUGAGCAUCA
# B18: chr9:91409354:91409467:-|CDS|ENSG00000165030|unk|total|mutant (ssRNA)
# RNA: GGGAGUUCUACAGUCCGACGAUCAAUGAAAGACAGUGGCUACAAAGUUUCUGACCCAGAGAACUUGUAUUUGAAGCAGGGGACCGCAAACUUAUCUGCAGAGGUUGUCUCACUCAAGAGACUUACCGCCACACAACCAAUCUCCAACAGAGGAUUGAGCAUCA
# B19: chr14:22589090:22589186:-|5pUTR_CDS|ENSG00000129562|msi1_unk|total|mutant (ssRNA)
# RNA: GGGAGUUCUACAGUCCGACGAUCUCCUCCAAGAGUUUGGGGCGCGGACCGGAGUACCUUGCGUGCAGUUAUGUCGGCGUCGGCCGUGUCUGUCAUUUCGCGGUUCUCCGAAGAGUACUUGAGCUCCACUCCGCAGCGUCUGAACAACAGAGGAUUGAGCAUCA
# Molecular target: T1, UNK ZnF1-6 (called full-length)
# Test: nsRBNS (natural sequence RNA bind-n-seq); RBNS binding buffer (assumed for nsRBNS): 25 mM Tris pH 7.5, 150 mM KCl, 3 mM MgCl2, 0.01% Triton X-100, 500 ug/ml BSA, 20 U/ml SUPERase-In, 4 C; UNK is unkempt and MSI1 is Musashi-1; names of the RNAs are library labels; protein concentration not given here; high values mean tight binding
row,Binder,binding signal [enrichment R]
1,B1,0.647
2,B2,0.851
3,B3,0.467
4,B4,0.566
5,B5,0.316
6,B6,28.9
7,B7,0.885
8,B8,0.455
9,B9,0.488
10,B10,0.995
11,B11,1.09
12,B12,0.538
13,B13,6.21
14,B14,0.527
15,B15,0.335
16,B16,1.16
17,B17,4.99
18,B18,0.615
19,B19,0.537
